Consider 53 compounds from article PMC4336329 (PLoS ONE, 2015).

Out of some 310,000 compounds screened, about 14,000 (4.5%) showed an effect of 50% or more. The effect is printed as a negative number. This is one part of the list.
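Note: peak tail current of the secondary pulse compared with the same well before compound.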

The target in the test is human ether-à-go-go-related gene (hERG) potassium channel (human, UniProt Q12809). Kind of test: primary screen, population patch clamp on CHO cells stably expressing hERG.
Chain of human ether-à-go-go-related gene (hERG) potassium channel (Q12809 whole entry, looked up): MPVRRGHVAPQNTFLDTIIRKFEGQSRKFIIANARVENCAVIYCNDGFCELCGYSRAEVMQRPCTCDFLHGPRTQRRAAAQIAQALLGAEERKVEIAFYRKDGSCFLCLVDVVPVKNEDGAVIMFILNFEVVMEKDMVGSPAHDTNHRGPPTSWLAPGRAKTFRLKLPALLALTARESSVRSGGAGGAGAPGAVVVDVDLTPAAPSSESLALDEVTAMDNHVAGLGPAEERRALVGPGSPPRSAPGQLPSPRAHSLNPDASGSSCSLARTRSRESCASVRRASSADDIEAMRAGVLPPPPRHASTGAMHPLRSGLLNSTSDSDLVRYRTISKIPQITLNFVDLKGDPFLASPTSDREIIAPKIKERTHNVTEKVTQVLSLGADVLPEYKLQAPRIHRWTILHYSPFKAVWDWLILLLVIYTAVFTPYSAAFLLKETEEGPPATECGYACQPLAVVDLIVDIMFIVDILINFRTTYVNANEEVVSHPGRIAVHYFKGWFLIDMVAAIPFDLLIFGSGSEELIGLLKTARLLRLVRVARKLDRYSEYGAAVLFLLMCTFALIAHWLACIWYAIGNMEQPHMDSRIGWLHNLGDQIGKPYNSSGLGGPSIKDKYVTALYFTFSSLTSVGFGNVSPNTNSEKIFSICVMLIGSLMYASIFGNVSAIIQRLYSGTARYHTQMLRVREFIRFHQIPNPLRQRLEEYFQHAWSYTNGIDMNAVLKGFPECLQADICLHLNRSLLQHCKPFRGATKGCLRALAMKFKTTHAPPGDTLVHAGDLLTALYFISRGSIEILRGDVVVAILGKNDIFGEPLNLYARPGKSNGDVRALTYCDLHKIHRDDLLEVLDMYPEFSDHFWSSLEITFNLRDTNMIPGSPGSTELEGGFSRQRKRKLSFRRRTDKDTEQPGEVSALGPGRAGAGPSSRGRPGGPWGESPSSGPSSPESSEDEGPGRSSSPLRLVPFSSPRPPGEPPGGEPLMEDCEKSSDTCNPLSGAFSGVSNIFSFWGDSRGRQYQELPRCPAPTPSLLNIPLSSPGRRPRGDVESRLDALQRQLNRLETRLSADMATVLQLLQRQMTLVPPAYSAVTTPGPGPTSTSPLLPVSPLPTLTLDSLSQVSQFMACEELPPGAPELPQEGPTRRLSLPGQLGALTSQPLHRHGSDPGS
As to `Cc1cc(S(=O)(=O)NCc2cccnc2)ccc1-n1cnnn1`, the “hERG current change (%, negative = inhibition) at 10uM” value is -28.7%.
As for `Cc1c(CCC(=O)NCC(=O)NCC(=O)O)c(=O)oc2cc3oc4c(c3cc12)CCCC4`, the figure is 4.87%; as for `Cc1ccc(S(=O)(=O)Nc2nc(C)cc(-n3nc(C)cc3C)n2)cc1`, -2.61%; as for `CC(=O)Nc1cccc(NC(=O)Nc2cccc(F)c2)c1`, 9.29%.
With `COc1cc(-n2c(N)c(C(=O)NCc3ccco3)c3nc4ccccc4nc32)cc(OC)c1OC` the figure was 16.8%; with `NC(=O)COC(=O)CCCc1c[nH]c2ccccc12`, 10.1%; with `CN(CC(=O)Nc1ccccc1C(F)(F)F)C(=O)c1ccc(N2C(=O)CCC2=O)cc1`, 5.47%.
With `Cc1oc2cc3oc(=O)c(CCC(=O)NCCCN4CCOCC4)c(C)c3cc2c1C` the figure was -5.14%.
Regarding `CC1(C)OC(=O)C(=NNc2ccccc2C(=O)O)C(=O)O1`, the “hERG current change (%, negative = inhibition) at 10uM” value is 16.3%.
As for `COc1ccc(C(=O)Nc2cc3c(cc2C#N)OCO3)cc1S(=O)(=O)N1CCN(C)CC1`, the figure is 11.8%; as for `CCOc1ccc(CC2S/C(=N/c3ccccn3)NC2=O)cc1` (centres unmarked), -3.79%; as for `COc1cccc(C(=O)OCC(=O)c2ccc(Br)s2)c1`, -2.08%.
With `CCOc1cc(C2NC(=O)c3ccccc3O2)ccc1OC` (centres unmarked) the figure was 17.1%; with `Cc1ccc2nc(N3CCC(C(=O)NC4CCCCC4)CC3)sc2c1`, 13.4%.
With `CCSc1nc(C)c(C(C)=O)cc1C#N` the figure was -1.41%; with `O=C(COC(=O)CCC1CCCC1)Nc1ccccc1OC(F)F`, 11.8%; with `Cc1cccc(-n2c(N)c(C(=O)N3CCN(C)CC3)sc2=S)c1`, 0.595%.
With `COc1ccc(S(=O)(=O)NC(C)C(=O)NCc2ccncc2)cc1OC` (centres unmarked), the “hERG current change (%, negative = inhibition) at 10uM” value amounted to 15.7%.
With `CCN(C(=O)CN1CCCCC1C)c1c(N)n(Cc2ccccc2)c(=O)[nH]c1=O` (centres unmarked) the figure was -23.1%.
As for `COc1ccc(C(=O)NNC2=Nc3cccc4cccc2c34)cc1`, the figure is 23.9%.
As for `CCC(=O)NC(=S)Nc1ccc(S(=O)(=O)NC(C)=O)cc1`, the figure is 12.1%.
On to `Oc1ccc[n+](CCCCC[n+]2cccc(O)c2)c1.[Br-]`, for which the “hERG current change (%, negative = inhibition) at 10uM” value came to 8.07%.
As for `CCOc1ccc(N(C)S(=O)(=O)c2ccc3[nH]cc(C(=O)NCCCOC)c(=O)c3c2)cc1`, the figure is 3.51%.
As for `COC(=O)C1CN(S(=O)(=O)c2ccccc2)CCN1S(=O)(=O)c1ccccc1` (centres unmarked), the figure is -12.7%; as for `C=CCn1c(COc2ccccc2)nnc1SCC(=O)N/N=C/c1cc(Cl)ccc1O`, 0.558%.
With `Cc1ccc2c(c1)C1CN(C)CCC1N2S(=O)(=O)c1ccc(C#N)cc1` (centres unmarked) the figure was -72.8%; with `O=[N+]([O-])c1cc2c(c(CSc3nnc4ccccn34)c1)OCOC2`, -12.4%; with `Cc1ccc(-c2cc(-c3ccc(C)cc3)[n+](C)o2)cc1.[O-][Cl+3]([O-])([O-])[O-]`, -68.4%.
Consider `CC(C)(C)NC(=O)CSc1nnc(C2CC2)n1-c1ccccc1`, for which the “hERG current change (%, negative = inhibition) at 10uM” value was determined as 1.48%.
As for `CC(=O)Cc1nsc(NC(=O)c2c(-c3ccccc3Cl)noc2C)n1`, the figure is 14.4%; as for `C=CCn1c(SCC(=O)c2[nH]c(C)c(C(=O)OC)c2C)nc2scc(-c3ccc(OC)c(OC)c3)c2c1=O`, 22.5%.
Consider `COc1cc(OC)c(OC)cc1CNC(=O)c1ccc(COc2ccccc2)cc1`, for which the “hERG current change (%, negative = inhibition) at 10uM” value was 16.2%.
As for `CCC(C)(C)NC(=O)Cn1c(-c2ccc(C)cc2)noc1=O`, the figure is 13.5%; as for `COc1cc(C2c3c(n[nH]c3C)C(=O)N2c2ccc(Br)cc2)ccc1O` (centres unmarked), 3.14%; as for `COC(=O)CC1(C(=O)OC)Oc2ccc(Br)cc2C(=O)N1c1cccc(Cl)c1Cl` (centres unmarked), 10.2%.
With `COc1ccc(/C(O)=C2/C(=O)C(=O)N(CCN(C)C)C2c2cccnc2)cc1C` (centres unmarked), the “hERG current change (%, negative = inhibition) at 10uM” value worked out at 1.58%.
For `Cc1nn(CC(=O)Nc2nnc(C(C)C)s2)c(=O)c2ccccc12`, the “hERG current change (%, negative = inhibition) at 10uM” value is reported as 35.5%.
With `CC(C)N(Cc1ccccc1)C(=O)C1CCCN(c2ncnc3c2nc2n3CCCCC2)C1` (centres unmarked) the figure was -44.3%; with `COc1ccc(CNc2ccc3c(c2)ncn3C)cc1OC`, 15.8%.
With `CC(=O)N(CCO)Cc1cc2cc(C)cc(C)c2[nH]c1=O` the figure was 8.65%.
Take `CCCCn1c(O)c(/C=N/N2CCCCC2c2cccnc2)c(=O)[nH]c1=S` (centres unmarked): the “hERG current change (%, negative = inhibition) at 10uM” value is -33.7%.
Consider `Cc1cccc(NC(=O)C2CCN(S(=O)(=O)c3ccc4c(c3)C(C)(C)C(=O)N4C)CC2)c1C`, for which the “hERG current change (%, negative = inhibition) at 10uM” value is reported as 21.5%.
For the compound `CCC(CC)C(=O)Nc1cccc(C(=O)Nc2ccc(OC)cc2[N+](=O)[O-])c1`, the “hERG current change (%, negative = inhibition) at 10uM” value stood at 10.8%.
With `CN(CCOc1ccccc1)C(=O)C1CCC(=O)N(CCCN2CCOCC2)C1` (centres unmarked) the figure was 9.16%; with `CSc1ncccc1C(=O)Nc1cccc(S(=O)(=O)N(C)c2ccccc2)c1`, -18.6%; with `CCCNC(=O)N1CCN(S(=O)(=O)c2ccc(C)cc2)CC1`, 1.4%.
With `COc1ccc2c(c1)O[C@H](c1ccc3c(c1)OCO3)[C@@H](O)C2=O` the figure was -1.54%.
With `Cc1cccc(C2CC(c3ccccc3)Nc3nc(N)nn32)c1` (centres unmarked) the figure was -15.5%; with `COc1ccc(S(=O)(=O)N2Cc3ccccc3CC2C(=O)Nc2ccc3c(c2)OCO3)cc1` (centres unmarked), 0.444%; with `CCOc1ccc(NC(=NCc2ccc3c(c2)OCO3)SC2CC(=O)N(c3ccc(C(=O)O)cc3)C2=O)cc1` (centres unmarked), 15.2%.
As for `CC(C)NCCCOc1ccc(C(C)(C)c2ccccc2)cc1.O=C(O)C(=O)O`, the “hERG current change (%, negative = inhibition) at 10uM” value was 7.21%.
With `CN(C)c1cccc(C(=O)OCCNC(=O)c2cccc(S(=O)(=O)N3CCOCC3)c2)c1` the figure was -8.21%.
`COc1cc(NC(=O)c2nnn(Cc3ccc(SC)cc3)c2N)cc(OC)c1`: the “hERG current change (%, negative = inhibition) at 10uM” value was -7.72%.
